Assay results taken from PubChem BioAssay AID1963576 (National Center for Advancing Translational Sciences (NCATS), 2024).
In all, about 46,000 compounds went through this assay and about 60 (0.1%) were called active. About 3% were inconclusive and are not listed. Calls come from the whole dose curve; as a rule, active = well fitted inhibition curve with a large enough effect; inconclusive = small, poorly fitted or top-dose-only effect; inactive = no such curve, though single readings can be large or run the other way. This is one part of the list.

assay: Primary qHTS assay for Inhibitors of ovarian cancer metastasis using an organotypic tumor microenvironment (TME) model.; note: nearly all actives have a fitted effect of over 65% in size;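 for activity change, negative = inhibition: plate controls were DMSO wells for no effect and tomatine positive control wells for full effect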; conditions: SKOV3ip1-GFP adhesion/invasion on 3D omental model, fluorescence; series mostly up to 45.8 µM; activity change, negative = inhibition: at the top concentration
In short: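 Primary human omental fibroblast/mesothelial 3D culture pre-formed 48 h. SKOV3ip1-GFP cells added with compounds (0.36-46 umol/L), incubated 2 h RT/16 h 37 C, fixed; GFP cells quantified at 488/509 nm.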

Activity change, negative = inhibition, inactive:
O=C(O)Cc1cccc(OCCCN(Cc2cccc(C(F)(F)F)c2Cl)CC(c2ccccc2)c2ccccc2)c1 -3.59%, CC1CCN(c2nc3c(S(=O)(=O)c4cccc(Cl)c4)nnn3c3ccsc23)CC1 -2.02%, Cc1ccc(N2CCN(C(=O)CCS(=O)(=O)c3cc4c(cc3Cl)NC(=O)CO4)CC2)c(C)c1 10.4%, Cc1ccc(C2C(=O)N(C3CCCCCC3)CC(=O)N2CCC2=CCCCC2)cc1 (centres undefined) -2.36%, COc1ccc(C2=Nc3ccccc3N(CC(=O)Nc3cccc(C(C)=O)c3)C(=O)C2)cc1 -1.87%, CCOC(=O)c1ccc(NC(=O)C(CC)Sc2nncn3c2cc2oc(C)cc23)cc1 (centres undefined) 5.87%, Cn1nnnc1SCCCNCc1cc(Cl)ccc1OCc1ccccc1 -27%, O=C1Nc2c(c(=O)[nH]c(=O)n2-c2ccc(F)cc2)C1(NS(=O)(=O)c1ccc(Cl)cc1)C(F)(F)F (centres undefined) 13.6%, COc1ccc(OCCCn2c(C)nc3cc(C)c(C)cc32)cc1 2.49%, COc1cccc2c1cc1c(=O)n(CC(=O)NCCCN3CCN(C)CC3)nc(C)n12 5.94%, CCC1=C(c2ccc(C)cc2)S(=O)(=O)N=C1N1CCC(C(=O)NCCc2cccc(OC)c2)CC1 -4.97%, CC(=O)N1CCc2c(sc3c2c(=O)n(-c2ccccc2)c(=O)n3CC(=O)c2ccc(F)cc2)C1 17.9%, CCc1ccc(NC(=O)C2CCCN2S(=O)(=O)c2cccc3nsnc23)cc1 (centres undefined) -9.16%, COc1cc(C(=O)Nc2nnc(CC(C)(C)C)s2)cc(OC)c1OC 1.83%, Cc1cn2c(=O)c(S(=O)(=O)NCCc3ccc(Cl)cc3)c(C)nc2s1 6.41%, CC(C)c1nn2c(=O)cc(COC(=O)c3ccc4c(c3)OCO4)nc2s1 1.64%, CCN(CC)CCNC(=O)Cn1cnc2sc(C)c(S(=O)(=O)N3CCC(C)CC3)c2c1=O 16.4%, COc1ccc(NC(=O)Cc2ccc(NC(=O)N3CCCCc4ccccc43)cc2)c(OC)c1 1.91%, CC(C)c1ccc(NC(=O)c2cc(S(=O)(=O)NCCC3=CCCCC3)ccc2F)cc1 -38.5%, CCOC(=O)C1CCC(CN(Cc2ccc(OC)cc2)S(=O)(=O)c2ccc(F)c(C(=O)Nc3cc(Cl)ccc3OC)c2)CC1 (centres undefined) 2.78%, Cn1cc(-c2cc3n(n2)CCC(=O)N3CCCC(=O)NCc2ccccc2)c2ccccc21 -3.62%, COc1ccc(CNC(=O)CN(C)S(=O)(=O)c2ccc3[nH]c4c(c3c2)CCCC4)cc1 -7.64%, CCOc1ccccc1C(=O)Nc1cc2c(cc1C)n(C)c(=O)c(=O)n2C 4.7%, CCOc1ccc(C(=O)Nc2ccc(Cl)c(-c3nc4cc(C)cc(C)c4o3)c2)cc1 -0.359%, CCc1ccc2occ(CC(=O)NCc3ccccc3)c2c1 -37.3%, Cc1oc(-c2ccc(Cl)cc2)nc1CN1CCCC(C(=O)NCc2ccc(Cl)cc2)C1 (centres undefined) 15.2%, CN(Cc1ccccc1)C(=O)c1ccc2c(c1)N(Cc1ccc(Cl)cc1)C(=O)c1ccccc1S2=O (centres undefined) -5.3%, CCOC(=O)c1cnc2c(C)cc(C)cc2c1Nc1ccc(N2CCOCC2)cc1 7.11%, Cc1ccc(-n2nc(C)c(C(=O)NCCCN3CCN(c4ccccc4F)CC3)c2-n2cccc2)cc1 -26.4%, Cn1c(=O)c2c(c3ccccc31)OC(=O)CC2c1ccccc1 (centres undefined) 0.367%, O=c1c2ccccc2n2c(-c3cccc(F)c3)nnc2n1Cc1ccccc1 3.45%, COc1ccc(NC(=O)c2ccc3c(=O)n4nc(Nc5ccccc5C)sc4nc3c2)cc1 2.72%, CC(C)c1ccc(NC(=O)CSC2=Nc3ccccc3C3=NC(CC(=O)NCc4ccco4)C(=O)N23)cc1 (centres undefined) 4.38%, COc1cccc(NS(=O)(=O)c2ccc3[nH]cc(C(=O)N(C)Cc4ccco4)c(=O)c3c2)c1 -5.14%, Cc1ccc(CC(=O)NCc2nc(-c3cccc(C)c3)no2)cc1 21%, Cc1ccc(N(C)C(=O)c2noc3c2CCCCC3)cc1C -17.9%, COc1ccc(OC)c(NC(=O)c2cc3c(=O)n4cccc(C)c4nc3n2C)c1 -0.498%, CN(C)c1ccc(-c2nc3ccccn3c2Nc2ccc3c(c2)OCCO3)cc1 -18.5%, Cc1cccc(N2CCN(C(=O)c3c4c(nc5ccccc35)C(=O)N(C3CCCCC3)C4)CC2)c1C 1.06%, COc1cc(OC)c(NC(=O)C(C)n2nc(-c3ccc(C)c(C)c3)ccc2=O)cc1Cl (centres undefined) 3.63%, COc1cccc(NC(=O)CSc2nnc(NC(=O)NC3CCCCC3)s2)c1 5.51%, Cc1cccc(C)c1OCc1cc(=O)n2ccsc2n1 -3.38%, COCCN1C(=O)c2oc3ccc(C)cc3c(=O)c2C1c1ccc(C(=O)OC)cc1 (centres undefined) -7.68%, CSc1ncc(C(=O)NCc2cccc(Br)c2)c(-c2ccccc2)n1 -19.5%, COc1cccc(C(=O)c2cn(CC(=O)Nc3cccc(Cl)c3C)c3nc(C)ccc3c2=O)c1 5.57%, O=C(Cn1c(=O)c2sccc2n(CC(=O)Nc2ccc(Cl)cc2Cl)c1=O)NCCc1ccccc1 -7.27%, CCCN1Cc2cccc(C(=O)Nc3ccc(OC)cc3OC)c2C1=O -0.205%, Cc1ccc(NC(=O)N2CCc3c([nH]c4ccccc34)C2c2ccccc2F)c(Cl)c1 (centres undefined) 6.01%, COc1ccc(C(C(=O)NCc2ccccc2)N(C(=O)Cn2nnc3ccccc32)c2ccc(OC)cc2)cc1 (centres undefined) 9.93%, Cc1ccc(C)c(NS(=O)(=O)c2ccc3c(c2)CCCN3C(=O)C2CCC2)c1 -16.1%, O=C(NCc1ccccc1F)C(=O)NCC(c1ccco1)S(=O)(=O)c1ccccc1 (centres undefined) -3.05%

outcome, inactive:
CCCCNc1nc2c(-c3cccc(Br)c3)nnn2c2ccccc12, COc1ccc(CNS(=O)(=O)c2csc(C(N)=O)c2)cc1OC, Cc1cn2c(=O)cc(COC(=O)c3ccc(NC(=O)c4ccc(C(C)(C)C)cc4)cc3)nc2s1, COC(=O)c1ccc(OCC2c3cc(OC)c(OC)cc3CCN2C(=O)Cc2ccc(OC)c(OC)c2)cc1 (centres undefined), COc1ccc(-c2nc3sc(CCNC(=O)c4ccc(C(C)(C)C)cc4)c(C)n3n2)cc1, COc1ccc(C(=O)Nc2ccc3c(c2)N(C)C(=O)c2ccccc2S3)cc1OC, CCOC(=O)N1CCN(C(=O)c2cnn(-c3cccc(C)c3)c2-n2cccc2)CC1, Cc1ccc(C(C)C)c(OCC(=O)Nc2ccc(-c3nc4ncccc4o3)cc2C)c1
